# In PubChem BioAssay AID1347417 (National Center for Advancing Translational Sciences (NCATS), 2020):
# The whole screen tested about 120,000 compounds, of which about 5,300 (4.4%) were called active. Inconclusive results, whose numbers are uncertain, are shown with a selection of clear calls. Calls follow the shape of the dose curve; as a rule, active = well fitted inhibition curve with a large enough effect; inconclusive = small, poorly fitted or top-dose-only effect; inactive = no such curve, though single readings can be large or run the other way. Where the call is inconclusive, the potency comes from a doubtful curve fit.
# Experiment: qHTS Primary assay for Inhibitors of Plasmodium falciparum Dd2 growth in vitro; also: nearly all actives have a fitted effect of over 65% in size;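 as to activity, negative = inhibition: plate controls were DMSO vehicle for no effect and reference drug for full effect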
# Conditions: P. falciparum Dd2 growth, SYBR Green, 72 h; activity, negative = inhibition: at 28.9 µM (top of the series) unless noted; series mostly up to 28.9 µM
# Summary of the method: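 Readout: SYBR Green fluorescence, 485 nm excitation, 535 nm emission, after ~16 h lysis at 37C. Before that, Dd2-infected red cells (2.5% hematocrit) grew 72 h with compound, 29 uM top final concentration.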
# Potency is read from the fitted curve at half-maximal effect; tags tell the direction and shape of the fitted curve.
Structure (SMILES),Potency,"activity, negative = inhibition"
Cc1ccc2c(CN3CCN(C(=O)c4ccc(Br)cc4)CC3)cc(=O)oc2c1,"inconclusive: 5.01 µM [inhibitor, partial curve, poor fit]",
Cc1nc(-c2ccc(F)cc2)cc([C@H]2CN3CC[C@H]2C[C@@H]3CNC(=O)c2ccco2)n1,inactive,
COc1ccc(-n2nc(C)c([C@H]3C=C[C@@H](OC(=O)Nc4ccc(Br)cc4)C3)c2C)cc1,"inconclusive: 10 µM [inhibitor, partial curve, poor fit]",
Cc1ccc(C)c(CN2C(=O)C3(c4ccccc42)N(c2ccc(Cl)cc2)C(=O)CS3(=O)=O)c1 (configuration not stated),"inconclusive: 10 µM [inhibitor, single point]",
Cc1nc2cc(C(=O)N3CCC(Cc4nncn4C(C)C)CC3)ccc2n1-c1ccc(C(C)C)cc1,"inconclusive: 4.47 µM [inhibitor, partial curve, poor fit]",
Cc1ccc(OCc2nc(C3CCN(C(=O)NCc4ccc(F)cc4)CC3)no2)cc1,"inconclusive: 10 µM [inhibitor, single point]",
Cc1ccccc1N1Cc2c(NCCc3ccccc3F)ncnc2N(C)CC1=O,inactive,
O=C(c1ccccc1Cl)N1CCC(c2nn(-c3ccc(Cl)cc3)c(=O)[nH]2)CC1,"inconclusive: 11.2 µM [inhibitor, single point]",
COc1ccccc1Nc1ncc2c(n1)CN(C(=O)C1CCC(OC)CC1)CCN2 (configuration not stated),inactive,
CCc1nc2c(c(-c3ccc(O)cc3)n1)CCN(Cc1ccc(C(F)(F)F)cc1)CC2,"inconclusive: 1.78 µM [inhibitor, partial curve, poor fit]",
CCNc1ncnc2sc3c(c12)CCN(Cc1cccnc1)C3,"inconclusive: 12.6 µM [inhibitor, single point]",
CCS(=O)(=O)Nc1ccc(C)n(CC(=O)N(C)Cc2ccccc2)c1=O,inactive,
CC(=O)c1ccc(NC(=O)c2nc(-c3ccc(C)cc3)n3c2CCCCC3)cc1,"inconclusive: 17.8 µM [inhibitor, single point]",
Cc1ccc(OCC(=O)Nc2nc(-c3ccc(Br)cc3)ns2)cc1C,inactive,
COc1cc2c(cc1OC)n(Cc1ccc([N+](=O)[O-])cc1)c(=O)n1nc(-c3ccccc3)nc21,"inconclusive: 4.47 µM [inhibitor, partial curve, poor fit]",
CN1CC(=O)N(C2CCNC2)Cc2c(NC3CCOC3)ncnc21 (configuration not stated),inactive,
FC(F)(F)c1ccc2nc([C@H]3CCN(Cc4ncc[nH]4)C3)[nH]c2c1,inactive,
COc1cc2c(cc1OC)C(COc1ccc3c(C)cc(=O)oc3c1)N(C(=O)c1ccccc1F)CC2 (configuration not stated),"inconclusive: 10 µM [inhibitor, single point]",
O=C(CCCn1ccnc1)N1CCn2nc(C(O)Cc3ccccc3)cc2C1 (configuration not stated),inactive,
Cc1ccc(CNC(=O)NCC2Cn3cccc3CN2C)cc1 (configuration not stated),"inconclusive: 17.8 µM [inhibitor, single point]",
CCOc1cccc(C2CC(=O)Nc3cc4c(cc32)OCCO4)c1 (configuration not stated),"inconclusive: 17.8 µM [inhibitor, single point]",
O=C(NCCCn1nccc1C1CC1)C1NCCc2[nH]cnc21 (configuration not stated),inactive,
CC(=O)N1c2ccccc2CC1C(=O)NCc1cccc(Cl)c1 (configuration not stated),,inconclusive: -39.9% [inhibitor] [at 0.594 µM]

Structure (SMILES),Potency,"activity, negative = inhibition"
CN1C[C@@H](NC(=O)c2ccccc2)C[C@H]1c1nc(-c2cnccn2)no1,inactive,
CN1CCC(C2CCN(Cc3ccc(CCC(C)(C)O)cc3)CC2)CC1,inactive,
COc1ccc(N2C(=O)CS(=O)(=O)C23C(=O)N(Cc2ccc(C)cc2)c2ccccc23)cc1Cl (configuration not stated),"inconclusive: 10 µM [inhibitor, single point]",
COc1ccccc1N1CCC(N[C@H](c2cccs2)C2CC(O)C2)CC1 (some centres not stated),"inconclusive: 17.8 µM [inhibitor, single point]",
Clc1ccccc1C1Cn2cnc(-c3nc(-c4cccnc4)no3)c2CO1 (configuration not stated),active: 4.47 µM,
Cc1cn2nc(C(=O)Nc3ccc(OC(F)(F)F)cc3)cc2c(N2CCSCC2)n1,"inconclusive: 2.51 µM [inhibitor, single point]",
Cn1c(CN2CCC(O)CC2)nnc1C1CCCN(C2CCNCC2)C1 (configuration not stated),inactive,
O=C(NC[C@H]1C[C@@H]2CCN1C[C@@H]2CN1CCC(Cc2ccccc2)CC1)Nc1ccccc1,inactive,
S=C(NC1CCCCC1)N[C@H]1CO[C@H]2[C@@H]1OC[C@@H]2n1nnnc1Oc1cccc(N2CCOCC2)c1,"inconclusive: 17.8 µM [inhibitor, single point]",
COc1ccc(CN2CCC3(CC2)CC(C(C)C)=NO3)cc1,"inconclusive: 3.16 µM [inhibitor, partial curve, poor fit]",
COc1ccc(NC(=O)Cc2c[nH]c3ncc(-c4cnn(C)c4)cc23)cn1,"inconclusive: 1.78 µM [inhibitor, full curve]",
Cc1cc(C(=O)N2CCc3c(nc(-c4ccc(F)cc4)[nH]c3=O)C2)nn1C,inactive,
CC1=C[C@@H](CNC(=O)COc2ccccc2)[C@H](C(C)C)C[C@H]1Cc1nnc(-c2cncn2C)o1,"inconclusive: 1.12 µM [inhibitor, full curve, poor fit]",
CCCCc1cn(C[C@H]2C[C@@H]3CCN2C[C@@H]3C(=O)NCc2ccc(F)cc2)nn1,"inconclusive: 8.91 µM [inhibitor, partial curve, poor fit]",
Cc1cccc(CCNC(=O)CN(c2ccc(C(C)C)cc2)S(=O)(=O)c2c(C)nn(C)c2C)c1,active: 10 µM,
Cc1cc(-c2cc3c(ccn3C(C)C)c(C(=O)NCc3c(C)cc(C)[nH]c3=O)n2)ccn1,"inconclusive: 2 µM [inhibitor, partial curve, poor fit]",
CCN(C(=O)Cn1cnc2onc(-c3ccc(F)cc3)c2c1=O)c1cc(C)ccc1C,active: 10 µM,
O=C(c1n[nH]c2ccccc12)N1CCC(c2nc(CCOCC3CCOCC3)no2)C1 (configuration not stated),"inconclusive: 3.98 µM [inhibitor, single point]",
O=C(CN1CCCCC1)NC1CC(=O)N(Cc2cccc3ccccc23)C1 (configuration not stated),"inconclusive: 10 µM [inhibitor, single point]",
Nc1cccc(C(=O)NCC2CCN(Cc3cc(F)cc(F)c3)C2)c1 (configuration not stated),"inconclusive: 10 µM [inhibitor, single point]",
CC(C)=CCn1c(-c2ccc(F)cc2)cn2cc(C(=O)N(C)CC(C)O)nc2c1=O (configuration not stated),"inconclusive: 8.91 µM [inhibitor, partial curve]",
COC1CN(c2cccc(F)c2)C12CCN(C1CCOCC1)CC2 (configuration not stated),"inconclusive: 11.2 µM [inhibitor, partial curve, poor fit]",
COc1ccc(C(C)NC(=O)c2ccc(-c3ccc(N4CCSCC4)nc3)cc2)cc1 (configuration not stated),inactive,

Structure (SMILES),Potency,"activity, negative = inhibition"
O=C(C1CC1)N1CCC(Oc2ccccc2)C1 (configuration not stated),"inconclusive: 0.891 µM [inhibitor, partial curve, poor fit]",
CCNC(=O)c1ccc(CSc2nc3ccncc3n2Cc2ccc(F)cc2)cc1,active: 7.94 µM,
COc1ccc(C(=O)N2CCCCCCNC(=O)[C@@H]3C[C@@H](c4nc(C(C)C)no4)C[C@@H]32)c(OC)n1,inactive,
Cc1nc(C(C)C)sc1C(=O)N1CCC(=O)N(CC2CC2)C(C(C)C)C1 (configuration not stated),inactive,
COCCNC(=O)CCc1c(C)nn(-c2ccc(F)cc2)c1Oc1ccccc1C,inactive,
CCOC(=O)C1(Cc2ccc(F)cc2F)CCCN(S(=O)(=O)c2ccsc2)C1 (configuration not stated),"inconclusive: 17.8 µM [inhibitor, single point]",
Cc1ccc(CN2CC[C@@](C)(O)[C@H](N3CCCC3)C2)s1,"inconclusive: 0.891 µM [inhibitor, partial curve, poor fit]",
CN(C)CCN(Cc1ccsc1)C(=O)[C@H]1CCC[C@H](O)C1,inactive,
CCn1cc(-c2ccncc2)cc1C(=O)NCc1cccc(OC)c1,"inconclusive: 0.316 µM [inhibitor, full curve, poor fit]",
COCCCNC(=O)c1ccc(-n2c(-c3ccccc3)cc3c2CCC(C)C3)cc1 (configuration not stated),"inconclusive: 3.98 µM [inhibitor, partial curve, poor fit]",
COc1ccc(NC(=O)[C@@H]2C[C@@H](c3ccc(F)cc3)N([S+](=O)([O-])c3ccccc3)C2)cn1,inactive,
COCCNC(=O)Cc1c[nH]c2ncc(-c3cccnc3)cc12,"inconclusive: 14.1 µM [inhibitor, partial curve, poor fit]",
O=C(COc1ccccc1F)Nc1nnc(SCc2cc(=O)c3ccccc3[nH]2)s1,inactive,
COc1ccc(NC(=O)C2CCCN(S(=O)(=O)c3ccc4c(c3)oc(=O)n4C)C2)c(OC)c1 (configuration not stated),inactive,
CC(c1cccs1)N(C)S(C)(=O)=O (configuration not stated),inactive,
O=C(c1ccccc1F)N1CCCC2(C1)NC(=O)N(Cc1cccc(Cl)c1)C2=O (configuration not stated),"inconclusive: 1.26 µM [inhibitor, full curve, poor fit]",
Cc1ccc(-c2noc([C@@](C)(N)Cc3ccccc3)n2)nn1,inactive,
CCOc1ccc(CCNC(=O)C2CCN(C(=O)c3cc4sccc4n3CC)CC2)cc1OCC,"inconclusive: 10 µM [inhibitor, single point]",
COc1ccccc1CC(=O)N1CCC2(CC1)NC(=O)N(Cc1ccccc1)C2=O,inactive,
COc1ccc(S(=O)(=O)N2C[C@@H]3C[C@H](C2)c2c(-c4ccc(OC(F)(F)F)cc4)ccc(=O)n2C3)cc1,"inconclusive: 17.8 µM [inhibitor, single point]",
Cc1ccc(NC(=O)c2ccc(CN3C(=O)CCn4nc(C)cc43)cc2)c(Cl)c1,inactive,
